Source: the supplement of paper PMC9151546
Many values rest on one well or one pass, so single values are uncertain.

Experiments:
CHO-K1 [1] = assay: hypodiploid nuclei frequency (% of nucleated events); higher = more hypodiploid events (aneugenic)
Description: (§1)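 Flow-cytometric in vitro micronucleus assay (Litron MicroFlow) in CHO-K1 cells in 96-well plates, 19 concentrations (4.5-200 µM, n=1 per concentration). Without S9, cells were exposed for 24 h and sampled at 48 h. With Aroclor 1254-induced rat liver S9, cells were exposed for 3-4 h and sampled at 27-28 h. Read-outs are %MN and %hypodiploid nuclei relative to nucleated events, and relative survival as the nuclei-to-bead ratio versus the 1% DMSO vehicle control (x100).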

CHO-K1 [2] = assay: micronucleus frequency (% of nucleated events); higher = more micronuclei (genotoxic)
CHO-K1 [3] = assay: relative survival (nuclei to bead ratio vs DMSO control) (% of vehicle control); higher = more surviving cells
Description: as §1
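Wherever hypodiploid nuclei frequency (% of nucleated events) is given: hypodiploid nuclei gated on a flow cytometer with 488 nm excitation after SYTOX Green staining, cultures at 37 °C, positive controls vinblastine without S9 and cyclophosphamide with S9.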
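Wherever micronucleus frequency (% of nucleated events) is given: cells lysed with nuclei stained by SYTOX Green, then micronucleus-gated events counted against nucleated events by flow cytometry with 488 nm excitation.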
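Wherever relative survival (nuclei to bead ratio vs DMSO control) is given: Lysed-cell nuclei stained with SYTOX Green and counted against counting beads by flow cytometry at 488 nm excitation, with vinblastine (no S9) and cyclophosphamide (plus S9) as positive controls.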

COCCOCCO [Diethylene glycol monomethyl ether]
Settings	hypodiploid nuclei frequency, CHO-K1 [1] [%]	micronucleus frequency, CHO-K1 [2] [%]	relative survival, CHO-K1 [3]
concentration: 4.5 (µM), S9 metabolic activation: with S9, exposure time: 3-4 hours	0.22	1.52	96.7
concentration: 4.5 (µM), S9 metabolic activation: without S9, exposure time: 24 hours	1	2.12	99.3
concentration: 5.63 (µM), S9 metabolic activation: with S9, exposure time: 3-4 hours	0.2	1.12	101
concentration: 5.63 (µM), S9 metabolic activation: without S9, exposure time: 24 hours	0.42	2.02	109
concentration: 7.04 (µM), S9 metabolic activation: with S9, exposure time: 3-4 hours	0.22	1.38	82.8
concentration: 7.04 (µM), S9 metabolic activation: without S9, exposure time: 24 hours	0.86	2.26	136
concentration: 8.8 (µM), S9 metabolic activation: with S9, exposure time: 3-4 hours	0.14	1.32	99.9
concentration: 8.8 (µM), S9 metabolic activation: without S9, exposure time: 24 hours	0.6	2.4	106
concentration: 11 (µM), S9 metabolic activation: with S9, exposure time: 3-4 hours	0.3	1.06	113
concentration: 11 (µM), S9 metabolic activation: without S9, exposure time: 24 hours	0.58	2.26	126
concentration: 13.7 (µM), S9 metabolic activation: with S9, exposure time: 3-4 hours	0.26	1.24	92.3
concentration: 13.7 (µM), S9 metabolic activation: without S9, exposure time: 24 hours	0.78	2.06	111
concentration: 17.2 (µM), S9 metabolic activation: with S9, exposure time: 3-4 hours	0.28	1.02	117
concentration: 17.2 (µM), S9 metabolic activation: without S9, exposure time: 24 hours	0.54	1.86	118
concentration: 21.5 (µM), S9 metabolic activation: with S9, exposure time: 3-4 hours	0.26	1.06	115
concentration: 21.5 (µM), S9 metabolic activation: without S9, exposure time: 24 hours	0.7	2.64	104
concentration: 26.8 (µM), S9 metabolic activation: with S9, exposure time: 3-4 hours	0.32	1.9	73.7
concentration: 26.8 (µM), S9 metabolic activation: without S9, exposure time: 24 hours	1	1.7	93.1
concentration: 33.6 (µM), S9 metabolic activation: with S9, exposure time: 3-4 hours	0.32	1.78	72
concentration: 33.6 (µM), S9 metabolic activation: without S9, exposure time: 24 hours	0.84	1.98	106
concentration: 41.9 (µM), S9 metabolic activation: with S9, exposure time: 3-4 hours	0.16	1.3	69
concentration: 41.9 (µM), S9 metabolic activation: without S9, exposure time: 24 hours	0.76	1.46	100
concentration: 52.4 (µM), S9 metabolic activation: with S9, exposure time: 3-4 hours	0.36	1.24	73
concentration: 52.4 (µM), S9 metabolic activation: without S9, exposure time: 24 hours	0.66	1.74	94.7
concentration: 65.5 (µM), S9 metabolic activation: with S9, exposure time: 3-4 hours	0.32	1.2	72.9
concentration: 65.5 (µM), S9 metabolic activation: without S9, exposure time: 24 hours	0.98	1.52	96.3
concentration: 81.9 (µM), S9 metabolic activation: with S9, exposure time: 3-4 hours	0.22	1.28	74.3
concentration: 81.9 (µM), S9 metabolic activation: without S9, exposure time: 24 hours	1.06	2.1	116
concentration: 102 (µM), S9 metabolic activation: with S9, exposure time: 3-4 hours	0.26	1.4	84.3
concentration: 102 (µM), S9 metabolic activation: without S9, exposure time: 24 hours	0.74	1.52	109
concentration: 128 (µM), S9 metabolic activation: with S9, exposure time: 3-4 hours	0.1	1.16	89.7
concentration: 128 (µM), S9 metabolic activation: without S9, exposure time: 24 hours	1.28	2.54	99.7
concentration: 160 (µM), S9 metabolic activation: with S9, exposure time: 3-4 hours	0.22	1.24	88.1
concentration: 160 (µM), S9 metabolic activation: without S9, exposure time: 24 hours	1.14	2.28	116
concentration: 200 (µM), S9 metabolic activation: with S9, exposure time: 3-4 hours	0.18	1.26	89.1
concentration: 200 (µM), S9 metabolic activation: without S9, exposure time: 24 hours	1.26	2.46	87.6

OCCOCCO [Diethylene glycol]
Settings	hypodiploid nuclei frequency, CHO-K1 [1] [%]	micronucleus frequency, CHO-K1 [2] [%]	relative survival, CHO-K1 [3]
concentration: 4.48 (µM), S9 metabolic activation: with S9, exposure time: 3-4 hours	0.16	2.62	96.3
concentration: 4.48 (µM), S9 metabolic activation: without S9, exposure time: 24 hours	0.64	1.86	84.1
concentration: 5.6 (µM), S9 metabolic activation: with S9, exposure time: 3-4 hours	0.3	2.14	105
concentration: 5.6 (µM), S9 metabolic activation: without S9, exposure time: 24 hours	0.68	1.88	88
concentration: 7 (µM), S9 metabolic activation: with S9, exposure time: 3-4 hours	0.32	1.56	86.3
concentration: 7 (µM), S9 metabolic activation: without S9, exposure time: 24 hours	0.56	1.62	86.2
concentration: 8.75 (µM), S9 metabolic activation: with S9, exposure time: 3-4 hours	0.26	1.82	112
concentration: 8.75 (µM), S9 metabolic activation: without S9, exposure time: 24 hours	0.42	2.06	73.9
concentration: 10.9 (µM), S9 metabolic activation: with S9, exposure time: 3-4 hours	0.3	1.78	90.6
concentration: 10.9 (µM), S9 metabolic activation: without S9, exposure time: 24 hours	0.5	1.78	97.6
concentration: 13.7 (µM), S9 metabolic activation: with S9, exposure time: 3-4 hours	0.26	1.52	90.6
concentration: 13.7 (µM), S9 metabolic activation: without S9, exposure time: 24 hours	0.56	1.8	99
concentration: 17.1 (µM), S9 metabolic activation: with S9, exposure time: 3-4 hours	0.4	2.6	83.7
concentration: 17.1 (µM), S9 metabolic activation: without S9, exposure time: 24 hours	0.48	2.42	100
concentration: 21.4 (µM), S9 metabolic activation: with S9, exposure time: 3-4 hours	0.4	2.22	120
concentration: 21.4 (µM), S9 metabolic activation: without S9, exposure time: 24 hours	0.92	1.96	92.3
concentration: 26.7 (µM), S9 metabolic activation: with S9, exposure time: 3-4 hours	0.36	2.06	151
concentration: 26.7 (µM), S9 metabolic activation: without S9, exposure time: 24 hours	0.7	2.06	109
concentration: 33.4 (µM), S9 metabolic activation: with S9, exposure time: 3-4 hours	0.22	2	146
concentration: 33.4 (µM), S9 metabolic activation: without S9, exposure time: 24 hours	0.7	2.3	109
concentration: 41.7 (µM), S9 metabolic activation: with S9, exposure time: 3-4 hours	0.18	2.02	118
concentration: 41.7 (µM), S9 metabolic activation: without S9, exposure time: 24 hours	0.7	1.92	109
concentration: 52.2 (µM), S9 metabolic activation: with S9, exposure time: 3-4 hours	0.14	1.52	117
concentration: 52.2 (µM), S9 metabolic activation: without S9, exposure time: 24 hours	0.62	2.04	116
concentration: 65.2 (µM), S9 metabolic activation: with S9, exposure time: 3-4 hours	0.28	1.94	111
concentration: 65.2 (µM), S9 metabolic activation: without S9, exposure time: 24 hours	0.58	1.82	115
concentration: 81.5 (µM), S9 metabolic activation: with S9, exposure time: 3-4 hours	0.38	1.5	112
concentration: 81.5 (µM), S9 metabolic activation: without S9, exposure time: 24 hours	0.62	2.06	123
concentration: 102 (µM), S9 metabolic activation: with S9, exposure time: 3-4 hours	0.24	1.7	123
concentration: 102 (µM), S9 metabolic activation: without S9, exposure time: 24 hours	0.84	2.76	122
concentration: 127 (µM), S9 metabolic activation: with S9, exposure time: 3-4 hours	0.26	1.32	103
concentration: 127 (µM), S9 metabolic activation: without S9, exposure time: 24 hours	0.6	2.7	135
concentration: 159 (µM), S9 metabolic activation: with S9, exposure time: 3-4 hours	0.38	2.26	94.5
concentration: 159 (µM), S9 metabolic activation: without S9, exposure time: 24 hours	0.96	3.34	111
concentration: 199 (µM), S9 metabolic activation: with S9, exposure time: 3-4 hours	0.46	2.2	78.5
concentration: 199 (µM), S9 metabolic activation: without S9, exposure time: 24 hours	1.02	2.9	120
